Reference: patent publication US20240417727A1, “ANTAGONIST OF THE MIRNA-106B-5P TO TREAT OR PREVENT THE CARDIOTOXICITY THAT IS DEVELOPED IN ONCOLOGIC PATIENTS AFTER RECEIVING ANTHRACYCLINE-BASED CHEMOTHERAPY” (UNIVERSIDAD DE MURCIA, priority 2021, published 2024)

Test system: C57BL6 mice
Conditions: for ejection fraction (EF) / fractional shorting (FS): echocardiography, 8 weeks post-Dox
[1] = AM106 20 mg/kg i.v., Dox 5 mg/kg i.p. weekly x5
[2] = plasma, AM106 20 mg/kg i.v., Dox 5 mg/kg i.p.
[3] = pretreatment with AM106, Dox cumulative 25 mg/kg

Compound | body mass (Dox treatment) | 3/7 caspase activity (LV myocardium) | cellular apoptosis by TUNEL staining (LV myocardium) | cardiac atrophy and fibrosis (cumulative 25 mg/kg dose) | ejection fraction (EF) | fractional shorting (FS) | sST2 plasma levels (AM106 20 mg/kg i.v., Dox 5 mg/kg i.p.) | FOG2 mRNA levels [1] | PR55α mRNA levels [1] | sST2 expression in LV myocardium (Dox) | mortality (Dox treatment) | YY1-HDAC4 interaction (LV myocardium, co-immunoprecipitation) | Dox-induced HDAC4 increase (LV, immunohistochemistry) | Dox-induced YY1 increase (LV, immunohistochemistry) | LDH activity [2] | cardiac troponin T (cTnT) levels [2] | cardiac fibrosis [3] | reduction in cardiomyocyte size [3] | reduction in heart weight [3]
COc1cccc2c1C(=O)c1c(O)c3c(c(O)c1C2=O)C[C@@](O)(C(=O)CO)C[C@@H]3O[C@H]1C[C@H](N)[C@H](O)[C@H](C)O1 [Dox, doxorubicin, reference compound] | whole-body cachexia | activation of 3/7 caspase activity | induced cellular apoptosis | significant cardiac atrophy and fibrosis | significant decline | significant decline |  |  |  |  |  |  |  |  |  |  |  |  | 
AM106: miRCURY LNA microRNA Inhibitor against miR-106b-5p, 5′-CACTGTCAGCACTTT-3′ (SEQ ID NO 3), sequence shown without LNA pattern (antisense CACUGUCAGCACUUU; LNA-modified inhibitor, LNA pattern not given here) | inhibited the loss of body mass | prevented | prevented |  | prevented | prevented | decreased | significant up-regulation | significant up-regulation | decreased sST2 expression | prevent the mortality associated with Dox treatment | prevent the effect of Dox on YY1-HDAC4 interaction | no effect | no effect | decreased | decreased | completely inhibited | completely inhibited | completely inhibited
